# Experimental data from the supplement of paper PMC8728848.
# The list shows a part of the results.
# Assays:
# Experiment in all cases: glycan array binding signal (z-score within array); higher = stronger binding
# Details in all cases: glycan notation: IUPAC condensed, linker removed
# [1] = target: Fuc(a1-2)Gal(b1-4)GlcNAc(b1-3)Gal(b1-4)GlcNAc(b1-2)Man(a1-3)[Fuc(a1-2)Gal(b1-4)GlcNAc(b1-3)Gal(b1-4)GlcNAc(b1-2)Man(a1-6)]Man(b1-4)GlcNAc(b1-4)GlcNAc
# In short: (§1)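 Columns mapping to the same glycan were averaged after glycan names were converted to IUPAC-condensed notation. The data come from 3228 arrays in the Consortium for Functional Glycomics database, limited to those with an available protein sequence. Binding is reported as a within-array Z-score averaged across arrays of one protein sequence and across linkers.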
# [2] = target: Fuc(a1-2)Gal(b1-4)GlcNAc(b1-3)Gal(b1-4)GlcNAc(b1-3)Gal(b1-4)GlcNAc
# In short: as §1
# [3] = target: Fuc(a1-2)Gal(b1-4)GlcNAc(b1-3)GalNAc
# In short: as §1
# [4] = target: Fuc(a1-2)Gal(b1-4)GlcNAc(b1-3)[Fuc(a1-2)Gal(b1-4)GlcNAc(b1-6)]GalNAc
# In short: as §1
# [5] = target: Fuc(a1-2)Gal(b1-4)GlcNAc(b1-3)[Fuc(a1-3)[Gal(b1-4)]GlcNAc(b1-6)]Gal(b1-4)Glc
# In short: as §1
# [6] = target: Fuc(a1-2)Gal(b1-4)GlcNAc(b1-6)GalNAc
# In short: as §1
# [7] = target: Fuc(a1-2)Gal(b1-4)GlcNAc6S
# In short: as §1
# [8] = target: Fuc(a1-2)Gal(b1-4)[Fuc(a1-3)]GlcNAc
# In short: as §1
# [9] = target: Fuc(a1-2)Gal(b1-4)[Fuc(a1-3)]GlcNAc(b1-2)Man(a1-3)[Fuc(a1-2)Gal(b1-4)[Fuc(a1-3)]GlcNAc(b1-2)Man(a1-6)]Man(b1-4)GlcNAc(b1-4)[Fuc(a1-6)]GlcNAc
# In short: as §1
# [10] = target: Fuc(a1-2)Gal(b1-4)[Fuc(a1-3)]GlcNAc(b1-2)[Fuc(a1-2)Gal(b1-4)[Fuc(a1-3)]GlcNAc(b1-4)]Man(a1-3)[Fuc(a1-2)Gal(b1-4)[Fuc(a1-3)]GlcNAc(b1-2)Man(a1-6)]Man(b1-4)GlcNAc(b1-4)GlcNAc
# In short: as §1
# [11] = target: Fuc(a1-2)Gal(b1-4)[Fuc(a1-3)]GlcNAc(b1-3)Gal(b1-4)[Fuc(a1-3)]GlcNAc
# In short: as §1
# [12] = target: Fuc(a1-2)Gal(b1-4)[Fuc(a1-3)]GlcNAc(b1-3)Gal(b1-4)[Fuc(a1-3)]GlcNAc(b1-3)Gal(b1-4)[Fuc(a1-3)]GlcNAc
# In short: as §1
# [13] = target: Fuc(a1-2)Gal(b1-4)[Fuc(a1-3)]GlcNAc(b1-3)GalNAc
# In short: as §1
# [14] = target: Fuc(a1-2)Gal(b1-4)[Fuc(a1-3)]GlcNAc(b1-3)[Neu5Ac(a2-6)Gal(b1-4)GlcNAc(b1-6)]Gal(b1-4)Glc
# In short: as §1
# [15] = target: Fuc(a1-2)Gal3S(b1-4)GlcNAc
# In short: as §1
# [16] = target: Fuc(a1-2)Gal6S(b1-3)GlcNAc
# In short: as §1
# [17] = target: Fuc(a1-2)Gal6S(b1-3)GlcNAc6S
# In short: as §1
# [18] = target: Fuc(a1-2)Gal6S(b1-4)Glc
# In short: as §1
# [19] = target: Fuc(a1-2)Gal6S(b1-4)Glc6S
# In short: as §1
# [20] = target: Fuc(a1-2)[Gal(a1-3)]Gal
# In short: as §1
# [21] = target: Fuc(a1-2)[Gal(a1-3)]Gal(b1-3)GalNAc
# In short: as §1
# [22] = target: Fuc(a1-2)[Gal(a1-3)]Gal(b1-3)GalNAc(b1-3)Gal(a1-4)Gal(b1-4)Glc
# In short: as §1
# [23] = target: Fuc(a1-2)[Gal(a1-3)]Gal(b1-3)GlcNAc
# In short: as §1
# [24] = target: Fuc(a1-2)[Gal(a1-3)]Gal(b1-3)GlcNAc(b1-2)Man(a1-3)[Fuc(a1-2)[Gal(a1-3)]Gal(b1-3)GlcNAc(b1-2)Man(a1-6)]Man(b1-4)GlcNAc(b1-4)GlcNAc
# In short: as §1
# [25] = target: Fuc(a1-2)[Gal(a1-3)]Gal(b1-3)GlcNAc(b1-2)Man(a1-3)[Fuc(a1-2)[Gal(a1-3)]Gal(b1-3)GlcNAc(b1-2)Man(a1-6)]Man(b1-4)GlcNAc(b1-4)[Fuc(a1-6)]GlcNAc
# In short: as §1
# [26] = target: Fuc(a1-2)[Gal(a1-3)]Gal(b1-3)GlcNAc(b1-3)GalNAc
# In short: as §1
# [27] = target: Fuc(a1-2)[Gal(a1-3)]Gal(b1-3)GlcNAc(b1-6)GalNAc
# In short: as §1
# [28] = target: Fuc(a1-2)[Gal(a1-3)]Gal(b1-4)Glc
# In short: as §1
# [29] = target: Fuc(a1-2)[Gal(a1-3)]Gal(b1-4)GlcNAc
# In short: as §1
# [30] = target: Fuc(a1-2)[Gal(a1-3)]Gal(b1-4)GlcNAc(b1-2)Man
# In short: as §1
binder,measurement,setting,value
PX9961A-pdi-456-24-456 (Parabacteroides distasonis) (protein) KTSSTQLPTIDAISSVADLTNAVNGVYEQQATEVGSYGAEFTLLADLRSGDFQSISTVNHAGPMYRYQTGKNDEMVYSFYKLFYNSLARLNNVLAAAENLEGADVDILKGELYAMRALYHFDLARVFAKLPSTTDMNDLGIVLSTEVYPTDYIGTRATLQQTYDQILKDIETALPLLSKDKQTGHINYWGALAIRARAYLYLEKNKEALADCKEIIASSPYKLYTRDEYIGAWDKEGTNEAIFEILVTPNYNAQRNSIGYFTHASGYGECAATESFLEELAKHPGDIRTELFAKETDNGYDGTYPQKYKGRDGQIYVNNPKVVRLSEVYLIAAEAALKAGDTSAAAGYMNTLRKNRIENYTDVASITLDDILLERRLELFTEGHTAWDAWRNGKSVNNKFVGEVKPGDYRTIMAIPIGEITVSRGQLIQNPGY,glycan array binding signal (z-score),[1],0.01
same,glycan array binding signal (z-score),[2],-0.148
same,glycan array binding signal (z-score),[3],-0.462
same,glycan array binding signal (z-score),[4],0.213
same,glycan array binding signal (z-score),[5],-0.716
same,glycan array binding signal (z-score),[6],0.583
same,glycan array binding signal (z-score),[7],-0.015
same,glycan array binding signal (z-score),[8],0.01
same,glycan array binding signal (z-score),[9],0.31
same,glycan array binding signal (z-score),[10],0.645
same,glycan array binding signal (z-score),[11],-0.191
same,glycan array binding signal (z-score),[12],0.615
same,glycan array binding signal (z-score),[13],0.737
same,glycan array binding signal (z-score),[14],-0.278
same,glycan array binding signal (z-score),[15],-0.639
same,glycan array binding signal (z-score),[16],-0.062
same,glycan array binding signal (z-score),[17],0.753
same,glycan array binding signal (z-score),[18],-0.556
same,glycan array binding signal (z-score),[19],-0.221
same,glycan array binding signal (z-score),[20],1.54
same,glycan array binding signal (z-score),[21],-0.144
same,glycan array binding signal (z-score),[22],0.058
same,glycan array binding signal (z-score),[23],-0.259
same,glycan array binding signal (z-score),[24],-0.367
same,glycan array binding signal (z-score),[25],-0.658
same,glycan array binding signal (z-score),[26],-0.494
same,glycan array binding signal (z-score),[27],-0.263
same,glycan array binding signal (z-score),[28],0.029
same,glycan array binding signal (z-score),[29],-0.239
same,glycan array binding signal (z-score),[30],-0.231
